# ChEMBL document CHEMBL4888484, “Replenishing the malaria drug discovery pipeline: Screening and hit evaluation of the MMV Hit Generation Library 1 (HGL1) against asexual blood stage Plasmodium falciparum ,using a nano luciferase reporter read-out” (2022)
# Among all 150,000 compounds or so, about 540 (0.36%) showed an effect of 50% or more. The list shows a part of the results.
# System: Plasmodium falciparum
# Assay: Primary screen in NF54 nanoGlo assay, in single point, at 2uM, 72h; a lower Z score goes with more inhibition
# Assay type: functional, Erythrocyte
# Conditions: timepoint 72 hour
Compound,% Inhibition,Z score
O=S(=O)(c1ccoc1)N1CCC[C@@]2(CCOC2)C1,-15%,1.95
C[C@@H]1CN(CC(=O)NCc2cnn3cccnc23)C[C@H](C)O1,-5%,1.07
COc1ccc2[nH]nc(-c3cc(-c4ccc[nH]4)nc(N)c3C#N)c2c1,-26%,2.29
COc1ccc(C(NC(=O)CN2CCn3ncnc3C2)c2ccc(OC)cc2)cc1,-10%,1.81
CN(C)C(=O)N1CCC(OCc2ccc(F)cc2)CC1,-10%,1.99
CCn1cc(CN(Cc2cc(OC)ccn2)CC(C)C)cn1,-13%,2.49
CN(C)C[C@@]12CN(Cc3ccccc3)C[C@@H]1CN(C(=O)c1ccccn1)C2,-3%,0.46
CC1CC1c1ccc(CN(C)S(=O)(=O)N(C)C)o1 (stereo not drawn),-6%,0.62
O=c1c2ccccc2sn1Cc1noc([C@@H]2CCCO2)n1,-11%,1.93
O=C(Nc1cnn2c1CCCC2)c1cccn1Cc1ccccc1,-6%,0.98
Cn1cccc(C(=O)N2CCc3cc(-c4ccncc4)ccc32)c1=O,3%,-0.6
COc1ccc(N2CCN(C(=O)CCC(=O)N3CCNC(=O)C3)CC2)cc1,-4%,0.59
O=S(=O)(c1ccc2c(c1)CCC2)N1CC(Cc2nc(-c3cccnc3)no2)C1,-1%,0.12
CCCCc1ccc(N2CC(C(=O)N3CCC(CO)C3)CC2=O)cc1 (stereo not drawn),-16%,1.43
CCCc1nnc(NC(=O)c2ccc3ccccc3n2)s1,-10%,2.05
CC(C)C(=O)N1CCc2ccc(OC(C)C(=O)N3CCOCC3)cc2C1c1ccccc1 (stereo not drawn),-11%,1.6
C=CCC1(OC)CCN(C[C@]2(O)CCCN(CCc3ccccc3)C2=O)CC1,-8%,1.09
Cc1n[nH]c(C)c1CN[C@H]1CCCC[C@@H]1F,-13%,1.51
CC(C)NC(=O)NC[C@H]1O[C@@H](CO)[C@@H](O)[C@H]1N1CCN(c2ccccn2)CC1,11%,-1.3
CC(C)Cn1ncnc1Cn1cnccc1=O,-4%,0.59
CN(C)S(=O)(=O)N(C)CCOC(=O)c1cccc(-n2ccnc2)n1,-18%,1.64

Compound,% Inhibition,Z score
COc1ccc(C(=O)N[C@H]2CCCc3ccc(F)cc32)nn1,-5%,0.7
O=C1CC(C(=O)N[C@H]2CCN(c3ccc(F)c(Cl)c3)C2=O)C1,-5%,0.84
C[C@]1(NC(=O)c2ccn(C3CCCCC3)n2)CCNC1=O,-8%,1.55
Cc1cc(=O)c(C(=O)N(C)Cc2noc(-c3ccccc3)n2)c[nH]1,-18%,2.09
CC(C)COC1CCN(Cc2ccc(OCc3ccccc3F)nc2)CC1,-9%,1.24
Cc1ncsc1CCNc1ncc(F)c(N(C)C)n1,-2%,0.38
O=C(CN1CCN(C(=O)Nc2ccc(F)cc2)CC1=O)N1CCN(c2ccccc2)CC1,-11%,1.99
O=C(NCCn1ccnc1)c1ccc2c(c1)OCCO2,-5%,1.04
CCOC(C)c1nc(CN(C)C(=O)C2CCCOC2)cs1 (stereo not drawn),-5%,0.54
NC(=O)CCN[C@@H](CCCc1ccccc1)c1ccccc1,-3%,0.31
NC(=NCCc1nccn1Cc1ccccc1)N1CCCCCC1,1%,-0.12
N#Cc1c(-c2ccc(Cl)cc2Cl)cc(-c2ccncc2)nc1N,2%,-0.22
COc1ccc(C2(C(=O)N(C)c3ccn(C)n3)CC3(CCC3)C2)cc1,-9%,1.05
COCc1ccc(C(=O)N[C@H]2CC[C@@H](C(=O)NCCn3cccn3)C2)o1,-9%,1.08
COc1ccccc1NC(=O)C[C@H]1C(=O)Nc2c(C)c(-c3ccc(F)cc3)nn21,-7%,1.12
CN(CCO)C[C@H](O)c1ccccc1Cl,-12%,1.89
CN(C)c1ccc2c(c1)OCCN2CC(=O)Nc1cc(Cl)ccc1-n1cncn1,1%,-0.11
O=C(Cn1c(-c2cccs2)cc2cc(Cl)ccc21)N1CCN(c2ccccc2F)CC1,17%,-2.15
Cc1noc(C)c1[C@@H](C)CNC(=O)c1c(O)cc(Cl)cc1Cl,-13%,2.51
CCCCc1nc(CN2CCCn3nc(CNC(=O)N(C)C)cc3C2)c[nH]1,-18%,2.6
COc1cccc(S(=O)(=O)N2CCN(C)[C@@H]3CS(=O)(=O)C[C@@H]32)c1,-3%,0.35

Compound,% Inhibition,Z score
OCC#Cc1ccc(CN2CCCC[C@@H]2CN2CCCC2)s1,-4%,0.85
COc1cccc(-n2ccc(=O)c(-c3nc(-c4ccc(C)c(C)c4)no3)n2)c1,5%,-0.85
COc1ccc(Cn2ncc(C)c2NC(=O)[C@H](C)n2cncn2)cc1OC,-4%,0.44
CCCN(C)CC1(O)CCC2(CCN(C(=O)CCc3ccccc3)CC2)CC1,7%,-0.9
CC(=O)N1CCC[C@H](Nc2nc(-c3ccncc3)nc3c2CCNC3)C1,0%,-0.02
O=C(CC(c1ccccc1)c1ccccc1)N1CC(=O)N2CCc3ccccc3[C@@H]2C1,39%,-5.29
OCC[C@H]1CN(Cc2cc3ccccc3[nH]2)CCN1Cc1ccc(F)c(F)c1,-8%,1.01
Cc1c(NS(=O)(=O)C[C@H]2CCCCO2)cnc2[nH]ccc12,-14%,1.52
CCS(=O)(=O)N1CCC[C@H](COCc2ccccc2)C1,-5%,0.74
CN(C)[C@H]1CCN(C(=O)c2cn(CCCc3ccccc3)nn2)C1,-12%,1.1
CN1C[C@@H]2CC[C@H]1CN(S(=O)(=O)c1ccc3c(c1)NC(=O)CO3)C2,2%,-0.42
O=C(c1ccc(Cl)cc1)N1C[C@]2(CO)CCCC[C@]2(CO)C1,-11%,1.22
Cc1oc2ncnc(Oc3ccccc3Cl)c2c1C,3%,-0.41
CC(C(=O)N(C)C1CCCCC1)N1CCCC(Cc2nnn[nH]2)C1 (stereo not drawn),-10%,1.9
O=C(CN1CCC(O)CC1)Nc1ccc(Cl)cn1,-7%,1.43
CN1CCC[C@H](NC(=O)CCn2cccn2)C1=O,-3%,0.43
CN(C)Cc1nnc([C@H]2C[C@@H](NC(=O)c3cnc4c(c3)CCC4)C2)n1C,-18%,1.83
CC(C)n1cnc2ccc(CNc3ccc4nnnn4n3)cc21,1%,-0.15
C[C@@H](c1ccccc1)n1cnc2c1c(=O)n(CC1CC1)c(=O)n2-c1ccccc1,1%,-0.14
CC[C@H](C)NS(=O)(=O)c1cc(-c2nc(C)c(C(=O)N3CCOCC3)s2)n(C)c1C,2%,-0.21
O=C(NCCN1CCCC1=O)c1ccc(-c2cnc3nncn3c2)cc1,1%,-0.25

Compound,% Inhibition,Z score
Cc1cnc(CNCCCOC2CCCCC2)o1,-7%,0.96
Cc1cc(C)cc(CCNC(=O)CN(C)S(C)(=O)=O)c1,-4%,0.7
CN1C(=O)[C@@H]2CC[C@H]1CN(C(=O)NCc1ccc(F)cc1)C2,-11%,1.6
CCOC(=O)c1nn(-c2ccc(C(=O)NCCC(c3ccccc3)c3ccccc3)cc2)c(C)c1Cl,-8%,1.14
N#CC1N(C(=O)[C@@H]2C[C@H]2c2ccc(F)cc2)CCCC12CCCCO2 (stereo partly drawn),4%,-0.41
COC(C)(C)CCN1CCOC[C@@]1(CO)CNC(=O)OC(C)(C)C,23%,-2.95
Cc1cc(C)n(CCC(=O)N2CCC(n3c(=O)[nH]c4ccc(F)cc4c3=O)CC2)n1,-6%,1.07
Cc1cnc(N2CCN([C@@H](C)C(=O)Nc3nccs3)CC2)s1,-6%,1.22
O=C(CCn1cnc2cc(-c3noc(-c4ccccn4)n3)ccc21)N1CCOCC1,-9%,1.86
CN(C)CC(=O)NC1(Cc2cccc(F)c2)CCC1,-4%,0.67
Cc1nc(N2CCC(c3nc4ccccc4o3)CC2)c2cccnc2n1,-13%,1.22
Cc1nc(N2CCC(C)CC2)ncc1-c1cc(=O)[nH]c(Nc2ccccc2Cl)n1,-9%,1.34
COc1ccc(-c2nccn3cc(C(=O)N4CCN(c5cccc(OC)c5)CC4)nc23)cc1,37%,-4.16
CCc1nc(C#N)cc(Oc2cccc3c2OCCC3)n1,-8%,1.48
C=CCS(=O)(=O)NC(=O)c1cc(C)c(C)cc1Cl,38%,-4.32
Cn1cc(-c2ccc(CNS(=O)(=O)c3cnn(C)c3)cn2)cn1,3%,-0.46
CCc1nn(C)cc1CNC(=O)NC[C@H](C)c1ccsc1,5%,-0.76
COCc1c(C(=O)NCCN2CCOCC2)cnn1-c1nccc(-c2ccccc2F)n1,-3%,0.48
Cc1c(CNC(=O)c2cncc3ncn(C)c23)cnn1C,2%,-0.28
Cc1oncc1CNC(=O)COc1ccc(Cl)cc1,-7%,1.1
COCCn1nnnc1[C@@H]1CN(C(=O)Cc2sc(C)nc2C)CCO1,0%,-0.07
